# Test results as given in the supplement of paper PMC8728848.
# This is one part of the list.
# B1: Nc3LysM (protein)
# chain: QFTVPPDTTAEPNTIKTCTWWHVAGSGDSCTSIASTYGITSEQFARWDMETTDSPKNPSVATACKLTVGNSYCIENNFGQDDPPTPSISSSTLIGTATTSTTASTTTGNGISTPTPIQEGMETATTTTSSGNGITTPTPTQAGMETVGNCDRFHLVKSGDQCGTIASTYGITLANFYSWNPAVGTSCQSLWLDTYVCVRTIGFVPPKTTTTTTKKPTSTTSAGGVATPTPTQPGMETVSGCKKFHKGRGNVSTVASGDQCGTIATRYGISLANFYSWNPAVGSSCQTLWLDYYVCVGR
# Key:
# Experiment in all cases: glycan array binding signal (z-score within array); higher = stronger binding
# Settings in all cases: glycan notation: IUPAC condensed, linker removed
# Glc(b1-6)Glc = target: Glc(b1-6)Glc
# Procedure, shortened: (§1)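 Negative Z-scores can be read as non-binding. The Z-score is calculated within each array and then averaged across arrays of one protein sequence at different concentrations or buffers and across linkers. Arrays, 3228 in all, were curated from the Consortium for Functional Glycomics database and kept only where the protein sequence was available.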
# GlcA(b1-3)Gal = target: GlcA(b1-3)Gal
# Procedure, shortened: as §1
# GlcA(b1-3)GlcNAc = target: GlcA(b1-3)GlcNAc
# Procedure, shortened: as §1
# GlcA(b1-6)Gal = target: GlcA(b1-6)Gal
# Procedure, shortened: as §1
# [1] = target: GlcA3S(b1-3)Gal(b1-4)GlcNAc(b1-2)Man
# Procedure, shortened: as §1
# [2] = target: GlcA3S(b1-3)Gal(b1-4)GlcNAc(b1-3)Gal(b1-4)Glc
# Procedure, shortened: as §1
# [3] = target: GlcNAc(a1-3)Gal(b1-4)GlcNAc
# Procedure, shortened: as §1
# [4] = target: GlcNAc(a1-4)Gal(b1-3)GlcNAc
# Procedure, shortened: as §1
# [5] = target: GlcNAc(a1-4)Gal(b1-4)GalNAc
# Procedure, shortened: as §1
# [6] = target: GlcNAc(a1-4)Gal(b1-4)GlcNAc
# Procedure, shortened: as §1
# [7] = target: GlcNAc(a1-4)Gal(b1-4)GlcNAc(b1-3)Gal(b1-4)Glc
# Procedure, shortened: as §1
# [8] = target: GlcNAc(a1-4)Gal(b1-4)GlcNAc(b1-3)Gal(b1-4)GlcNAc
# Procedure, shortened: as §1
# [9] = target: GlcNAc(a1-4)Gal(b1-4)GlcNAc(b1-3)Gal(b1-4)GlcNAc(b1-3)Gal(b1-4)GlcNAc
# Procedure, shortened: as §1
# [10] = target: GlcNAc(a1-4)Gal(b1-4)GlcNAc(b1-3)Gal(b1-4)[Fuc(a1-3)]GlcNAc(b1-3)Gal(b1-4)[Fuc(a1-3)]GlcNAc
# Procedure, shortened: as §1
# [11] = target: GlcNAc(a1-6)Gal(b1-4)GlcNAc
# Procedure, shortened: as §1
# [12] = target: GlcNAc(b1-2)Gal(b1-3)GalNAc
# Procedure, shortened: as §1
# [13] = target: GlcNAc(b1-2)Man(a1-3)[GlcNAc(b1-2)Man(a1-6)]Man(b1-4)GlcNAc(b1-4)GlcNAc
# Procedure, shortened: as §1
# [14] = target: GlcNAc(b1-2)Man(a1-3)[GlcNAc(b1-2)Man(a1-6)]Man(b1-4)GlcNAc(b1-4)[Fuc(a1-6)]GlcNAc
# Procedure, shortened: as §1
# [15] = target: GlcNAc(b1-2)Man(a1-3)[GlcNAc(b1-4)][GlcNAc(b1-2)Man(a1-6)]Man(b1-4)GlcNAc(b1-4)GlcNAc
# Procedure, shortened: as §1
# [16] = target: GlcNAc(b1-2)Man(a1-3)[GlcNAc(b1-4)][GlcNAc(b1-2)Man(a1-6)]Man(b1-4)GlcNAc(b1-4)[Fuc(a1-6)]GlcNAc
# Procedure, shortened: as §1
# [17] = target: GlcNAc(b1-2)[GlcNAc(b1-4)]Man(a1-3)[GlcNAc(b1-2)Man(a1-6)]Man(b1-4)GlcNAc(b1-4)GlcNAc
# Procedure, shortened: as §1
# [18] = target: GlcNAc(b1-2)[GlcNAc(b1-4)]Man(a1-3)[GlcNAc(b1-4)][GlcNAc(b1-2)Man(a1-6)]Man(b1-4)GlcNAc(b1-4)GlcNAc
# Procedure, shortened: as §1
# [19] = target: GlcNAc(b1-2)[GlcNAc(b1-4)]Man(a1-3)[GlcNAc(b1-4)][GlcNAc(b1-2)[GlcNAc(b1-6)]Man(a1-6)]Man(b1-4)GlcNAc(b1-4)GlcNAc
# Procedure, shortened: as §1
# [20] = target: GlcNAc(b1-2)[GlcNAc(b1-4)]Man(a1-3)[GlcNAc(b1-4)][GlcNAc(b1-2)[GlcNAc(b1-6)]Man(a1-6)]Man(b1-4)GlcNAc(b1-4)[Fuc(a1-6)]GlcNAc
# Procedure, shortened: as §1
# [21] = target: GlcNAc(b1-2)[GlcNAc(b1-6)]Man(a1-6)[GlcNAc(b1-2)Man(a1-3)]Man(b1-4)GlcNAc(b1-4)GlcNAc
# Procedure, shortened: as §1
# [22] = target: GlcNAc(b1-2)[GlcNAc(b1-6)]Man(a1-6)[GlcNAc(b1-2)Man(a1-3)]Man(b1-4)GlcNAc(b1-4)[Fuc(a1-6)]GlcNAc
# Procedure, shortened: as §1
# [23] = target: GlcNAc(b1-2)[GlcNAc(b1-6)]Man(a1-6)[GlcNAc(b1-4)][GlcNAc(b1-2)Man(a1-3)]Man(b1-4)GlcNAc(b1-4)GlcNAc
# Procedure, shortened: as §1
# GlcNAc(b1-3)Fuc = target: GlcNAc(b1-3)Fuc
# Procedure, shortened: as §1
# GlcNAc(b1-3)Gal = target: GlcNAc(b1-3)Gal
# Procedure, shortened: as §1
# [24] = target: GlcNAc(b1-3)Gal(b1-3)GalNAc
# Procedure, shortened: as §1
# GlcNAc(b1-3)Gal(b1-4)Glc = target: GlcNAc(b1-3)Gal(b1-4)Glc
# Procedure, shortened: as §1
# [25] = target: GlcNAc(b1-3)Gal(b1-4)GlcNAc
# Procedure, shortened: as §1
# [26] = target: GlcNAc(b1-3)Gal(b1-4)GlcNAc(b1-2)Man(a1-3)[GlcNAc(b1-3)Gal(b1-4)GlcNAc(b1-2)Man(a1-6)]Man(b1-4)GlcNAc(b1-4)GlcNAc
# Procedure, shortened: as §1
# [27] = target: GlcNAc(b1-3)Gal(b1-4)GlcNAc(b1-2)Man(a1-3)[GlcNAc(b1-3)Gal(b1-4)GlcNAc(b1-2)Man(a1-6)]Man(b1-4)GlcNAc(b1-4)[Fuc(a1-6)]GlcNAc
# Procedure, shortened: as §1
# [28] = target: GlcNAc(b1-3)Gal(b1-4)GlcNAc(b1-2)[GlcNAc(b1-3)Gal(b1-4)GlcNAc(b1-6)]Man(a1-6)[GlcNAc(b1-3)Gal(b1-4)GlcNAc(b1-2)Man(a1-3)]Man(b1-4)GlcNAc(b1-4)GlcNAc
# Procedure, shortened: as §1
# [29] = target: GlcNAc(b1-3)Gal(b1-4)GlcNAc(b1-3)Gal(b1-4)GlcNAc
# Procedure, shortened: as §1
# [30] = target: GlcNAc(b1-3)Gal(b1-4)GlcNAc(b1-3)Gal(b1-4)GlcNAc(b1-2)Man(a1-3)[GlcNAc(b1-3)Gal(b1-4)GlcNAc(b1-3)Gal(b1-4)GlcNAc(b1-2)Man(a1-6)]Man(b1-4)GlcNAc(b1-4)GlcNAc
# Procedure, shortened: as §1
binder,measurement,setting,value
B1,glycan array binding signal (z-score),Glc(b1-6)Glc,0.079
same,glycan array binding signal (z-score),GlcA(b1-3)Gal,-0.214
same,glycan array binding signal (z-score),GlcA(b1-3)GlcNAc,-0.019
same,glycan array binding signal (z-score),GlcA(b1-6)Gal,-0.075
same,glycan array binding signal (z-score),[1],0.107
same,glycan array binding signal (z-score),[2],-0.126
same,glycan array binding signal (z-score),[3],-0.2
same,glycan array binding signal (z-score),[4],-0.199
same,glycan array binding signal (z-score),[5],0.113
same,glycan array binding signal (z-score),[6],0.199
same,glycan array binding signal (z-score),[7],0.01
same,glycan array binding signal (z-score),[8],0.052
same,glycan array binding signal (z-score),[9],-0.05
same,glycan array binding signal (z-score),[10],0.109
same,glycan array binding signal (z-score),[11],-0.248
same,glycan array binding signal (z-score),[12],-0.115
same,glycan array binding signal (z-score),[13],-0.024
same,glycan array binding signal (z-score),[14],0.106
same,glycan array binding signal (z-score),[15],-0.227
same,glycan array binding signal (z-score),[16],-0.063
same,glycan array binding signal (z-score),[17],-0.147
same,glycan array binding signal (z-score),[18],0.034
same,glycan array binding signal (z-score),[19],-0.326
same,glycan array binding signal (z-score),[20],-0.023
same,glycan array binding signal (z-score),[21],-0.148
same,glycan array binding signal (z-score),[22],-0.037
same,glycan array binding signal (z-score),[23],-0.189
same,glycan array binding signal (z-score),GlcNAc(b1-3)Fuc,-0.168
same,glycan array binding signal (z-score),GlcNAc(b1-3)Gal,-0.143
same,glycan array binding signal (z-score),[24],0.075
same,glycan array binding signal (z-score),GlcNAc(b1-3)Gal(b1-4)Glc,-0.132
same,glycan array binding signal (z-score),[25],-0.033
same,glycan array binding signal (z-score),[26],-0.218
same,glycan array binding signal (z-score),[27],0.028
same,glycan array binding signal (z-score),[28],-0.201
same,glycan array binding signal (z-score),[29],-0.131
same,glycan array binding signal (z-score),[30],0.008
